The campaign covered roughly 310,000 compounds. About 14,000 (4.5%) showed an effect of 50% or more. The effect is printed as a negative number. The list shows a part of the results.
biological target: human ether-à-go-go-related gene (hERG) potassium channel (human, UniProt Q12809); assay: primary screen, population patch clamp on CHO cells stably expressing hERG
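Further: peak tail current of the secondary pulse compared with the same well before compound.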

Chain of human ether-à-go-go-related gene (hERG) potassium channel (Q12809 whole entry, looked up): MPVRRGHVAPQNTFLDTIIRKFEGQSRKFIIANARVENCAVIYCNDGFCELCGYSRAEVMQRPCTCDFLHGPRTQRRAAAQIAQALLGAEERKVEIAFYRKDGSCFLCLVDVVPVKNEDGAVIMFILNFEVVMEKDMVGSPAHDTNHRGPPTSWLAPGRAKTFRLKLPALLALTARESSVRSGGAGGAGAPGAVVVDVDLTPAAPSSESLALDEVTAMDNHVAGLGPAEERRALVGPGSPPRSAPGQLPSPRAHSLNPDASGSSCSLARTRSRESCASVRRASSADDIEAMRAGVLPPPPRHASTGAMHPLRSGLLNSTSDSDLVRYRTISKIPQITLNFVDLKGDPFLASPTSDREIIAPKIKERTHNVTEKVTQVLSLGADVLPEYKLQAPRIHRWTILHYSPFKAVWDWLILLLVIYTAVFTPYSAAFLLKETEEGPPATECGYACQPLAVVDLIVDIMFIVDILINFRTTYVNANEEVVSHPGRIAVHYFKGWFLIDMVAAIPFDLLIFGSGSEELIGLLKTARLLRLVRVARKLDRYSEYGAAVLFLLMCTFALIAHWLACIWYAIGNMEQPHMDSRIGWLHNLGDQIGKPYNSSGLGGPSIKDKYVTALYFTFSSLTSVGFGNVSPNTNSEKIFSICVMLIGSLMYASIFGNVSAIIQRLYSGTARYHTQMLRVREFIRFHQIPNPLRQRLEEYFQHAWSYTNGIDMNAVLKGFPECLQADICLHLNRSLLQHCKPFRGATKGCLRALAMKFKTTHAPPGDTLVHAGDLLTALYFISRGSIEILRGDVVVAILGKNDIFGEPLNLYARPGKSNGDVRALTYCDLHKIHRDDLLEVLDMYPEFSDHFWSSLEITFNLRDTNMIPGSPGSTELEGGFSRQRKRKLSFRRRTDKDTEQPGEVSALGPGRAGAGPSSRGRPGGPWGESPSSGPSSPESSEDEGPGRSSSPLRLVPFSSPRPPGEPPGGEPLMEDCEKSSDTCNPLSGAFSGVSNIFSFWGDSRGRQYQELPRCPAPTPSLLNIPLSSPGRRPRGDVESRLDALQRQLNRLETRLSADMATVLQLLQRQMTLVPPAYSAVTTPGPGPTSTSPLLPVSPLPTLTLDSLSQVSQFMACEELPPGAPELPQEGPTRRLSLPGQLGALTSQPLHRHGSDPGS

Compound | hERG current change (%, negative = inhibition) at 10uM [%]
CCN1CCN(C(=O)CNC(=O)c2nn(-c3ccc(OC)cc3)c(=O)c3ccccc23)CC1 | 16.3
CCN(C(=O)CSc1nnc(SC)s1)c1c(N)n(Cc2ccccc2)c(=O)[nH]c1=O | 11.3
CCOC(=O)C1=C(C)N(c2nonc2NC(C)=O)C(N)=C(C#N)C1c1ccccc1F (stereo not drawn) | 0.315
Cc1ccc(C(=O)NN2C(=O)CSC2=S)cc1 | 3.95
Clc1cccc(C2CCN(Cc3nc(CC4CC4)no3)C2)c1 (stereo not drawn) | -23.8
CCOc1cc2[nH]c(=O)n(Cc3ccc(C(=O)NCCOC)cc3)c(=O)c2cc1OCC | -1.14
CCc1cccc(C)c1NC(=O)COC(=O)C(NS(=O)(=O)c1ccc(Cl)cc1)C(C)O (stereo not drawn) | 1.86
Cc1csc(NC(=O)c2ccncc2)n1 | 0.28
O=C1CCCC2=C1C(c1ccncc1)Nc1ccccc1N2 (stereo not drawn) | 10.2
Cc1cc(C)c2c(-n3cccc3)c(NC(=O)OCc3ccccc3)sc2n1 | 7.96
Cc1noc(C)c1CSc1nc2sc3c(c2c(=O)n1C)CCCC3 | 0.356
CCCCNC(=O)C1c2ccccc2C(=O)N(c2ccc(OC)cc2)C1c1ccc(OC)cc1 (stereo not drawn) | -18.6
O=C(CCN1C(=O)C2CC=CCC2C1=O)Nc1cccc(Cl)c1 (stereo not drawn) | -11.8
COc1ccc(CN(C)C(=O)c2ccc(COc3ccccc3)cc2)c(OC)c1 | 9.48
CC(=O)N1CCN(C(=O)CCNS(=O)(=O)c2ccc(Br)cc2)CC1 | -1.75
Cc1cccc(-c2nnc(-c3ccccc3)o2)c1 | -0.982
COc1cccc(N=c2oc3c(C)ncc(CO)c3cc2C(N)=O)c1 | -8.59
O=C(NC1CCCCC1)C(c1c(F)cccc1Cl)N(C(=O)c1csnn1)C1CC1 (stereo not drawn) | 16.3
FC(F)(F)c1ccc(-c2n[nH]c(=S)o2)nc1 | 9.31

Compound | hERG current change (%, negative = inhibition) at 10uM [%]
CC(=O)c1ccc(NC(=O)Cn2c(=O)oc3ccccc32)cc1 | 21.1
COC(=O)c1ccc(NC(=O)c2cc3c(CO)cnc(C)c3oc2=Nc2cccc(C(N)=O)c2)cc1 | 15.5
O=C(CCC(=O)NNC(=O)Nc1cccc(Cl)c1)NCc1ccccc1 | 7.96
Cc1cc(C)nc(SCc2n[nH]c(=S)n2C)n1 | 7.5
CC(NC(=O)CN1CCN(Cc2cccc(F)c2)CC1)c1ccccc1 (stereo not drawn) | 3.04
COc1ccc(OCC(=O)N(Cc2sccc2C)C2CCS(=O)(=O)C2)cc1 (stereo not drawn) | -23.2
Cc1nc2nc(-c3ccco3)[nH]n2c(=O)c1C | -5.93
O=C(CCN1C(=O)/C(=C/c2ccco2)SC1=S)Nc1ccc(O)cc1C(=O)O | -9.09
Cc1cc(C)c(-c2csc(NC(=O)c3n[nH]c(=O)c4ccccc34)n2)c(C)c1 | 0.0213
Clc1cccc(CN2CCSCC2)c1Cl | 18.3
CC(O)(CS(=O)(=O)Cc1ccccc1Cl)C(=O)Nc1cccc(C(F)(F)F)c1 (stereo not drawn) | -19.9
Nc1cccc(S(=O)(=O)Nc2ccccc2)c1 | 25.5
CCC(C)NC(=O)COc1ccc(Br)c(C)c1 (stereo not drawn) | 8.76
CC1Sc2ccccc2N(CC(=O)N(C(C)C)C(C)C)C1=O (stereo not drawn) | -7.58
CCOC(=O)C1CCN(c2nc3ccccc3nc2C(C#N)C(=O)OCCOC)CC1 (stereo not drawn) | -27.4
O=C(CN1CCCCC1)Nc1ccc(S(=O)(=O)N2CCCCCC2)cc1 | -35.5
CCOC(=O)c1oc2ccccc2c1COC(=O)CNC(=O)c1ccccc1 | 18.5
CCOC(=O)Cc1nnc(NC(=O)COc2ccc(OC)cc2)s1 | -13
Cc1[nH]c2ccccc2c1C(=O)C(=O)N1CCN(C)CC1 | 18.5

Compound | hERG current change (%, negative = inhibition) at 10uM [%]
C=CCNC(=S)Nc1ccc2nc(C)oc2c1 | 10.7
COc1ccc(C2CC(c3cccs3)=NN2C(=O)CCC(=O)O)cc1 (stereo not drawn) | 10.5
COc1ccc(OCc2cccc(C(=O)N3CCCC3)c2)cc1 | -3.08
CCOC(=O)[C@H]1[C@H]2COc3ccc(Cl)cc3[C@@H]2N2C(=O)c3ccc(C)cc3NC(=O)[C@@]12C | 5.25
Cc1cn2c(-c3cccnc3)nnc2s1 | -4.47
COc1cc(C(=O)NC(=S)Nc2ccccc2N2CCCC2)cc(OC)c1OC | 4.4
COc1ccc(N2CCN(C(=O)COC(=O)c3oc4ccccc4c3C)CC2)cc1 | -21.6
CCOC(=O)c1c(C)[nH]c(C)c1S(=O)(=O)NCc1ccccc1OCC | 22.9
CC12C=CC3(O1)C(C(=O)N(c1ccccc1)C3C(=O)NC1CCCC1)C2C(N)=O (stereo not drawn) | -10.4
CCOC(=O)C1=C(C)N=C2SC(CC)C(=O)N2C1c1cccc(F)c1 (stereo not drawn) | -33.5
Cn1c(O)c(C=Nc2ccc3c(c2)CCC3)c(=O)n(C)c1=O | 3.67
CC[n+]1c(/C=C/c2ccc(OC)c(OC)c2)ccc2ccccc21.[I-] | 23.5
O=C(Cn1nnc(-c2cccs2)n1)N1CCOCC1 | 0.125
C/C(=N/Nc1nc(C)cc(-c2ccccc2)n1)c1ccco1 | -1.42
O=C(NC(=S)Nc1ccc(CN2CCOCC2)cc1)c1ccc(-c2ccc(Br)cc2)o1 | 13.7
Cc1cc(NC(=O)Cc2ccccc2)ccc1NC(=O)c1cccs1 | 11.7
O=C(CCSc1ccccc1)Nc1ccc(S(=O)(=O)N2CCOCC2)cc1 | -25.2
Cc1ccc(C(=O)N2N=C(c3ccc(Br)cc3)CC2c2ccccc2O)cc1 (stereo not drawn) | 0.897
FC(F)Oc1ccc(NC(=S)NNc2ccnc3cc(Cl)ccc23)cc1 | 32.9

— article PMC4336329 (PLoS ONE, 2015)
